{"source": "the supplement of paper PMC8728848", "experiment_in_all_cases": "glycan array binding signal (z-score within array); higher = stronger binding", "settings_in_all_cases": "glycan notation: IUPAC condensed, linker removed", "key": {"[1]": {"target": "Gal(b1-3)GlcNAc(b1-2)Man(a1-3)[Gal(b1-3)GlcNAc(b1-2)Man(a1-6)]Man(b1-4)GlcNAc(b1-4)GlcNAc", "outline": "(§1)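 Glycan array binding is given as a within-array Z-score, which can be read as non-binding when negative. The arrays, 3228 of them, came from the Consortium for Functional Glycomics database and were retained only where the protein sequence was available. Z-scores were averaged across arrays of the same protein sequence at different concentrations or buffers and across linkers.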"}, "[2]": {"target": "Gal(b1-3)GlcNAc(b1-2)Man(a1-3)[Gal(b1-3)GlcNAc(b1-2)Man(a1-6)]Man(b1-4)GlcNAc(b1-4)[Fuc(a1-6)]GlcNAc", "outline": "as §1"}, "[3]": {"target": "Gal(b1-3)GlcNAc(b1-2)Man(a1-3)[GlcNAc(b1-4)][Gal(b1-3)GlcNAc(b1-2)Man(a1-6)]Man(b1-4)GlcNAc(b1-4)GlcNAc", "outline": "as §1"}, "[4]": {"target": "Gal(b1-3)GlcNAc(b1-2)[Gal(b1-3)GlcNAc(b1-6)]Man(a1-6)[Gal(b1-3)GlcNAc(b1-2)Man(a1-3)]Man(b1-4)GlcNAc(b1-4)GlcNAc", "outline": "as §1"}, "[5]": {"target": "Gal(b1-3)GlcNAc(b1-3)Gal(b1-3)GlcNAc", "outline": "as §1"}, "[6]": {"target": "Gal(b1-3)GlcNAc(b1-3)Gal(b1-4)Glc", "outline": "as §1"}, "[7]": {"target": "Gal(b1-3)GlcNAc(b1-3)Gal(b1-4)GlcNAc", "outline": "as §1"}, "[8]": {"target": "Gal(b1-3)GlcNAc(b1-3)Gal(b1-4)GlcNAc(b1-2)Man(a1-3)[Gal(b1-3)GlcNAc(b1-3)Gal(b1-4)GlcNAc(b1-2)Man(a1-6)]Man(b1-4)GlcNAc(b1-4)GlcNAc", "outline": "as §1"}, "[9]": {"target": "Gal(b1-3)GlcNAc(b1-3)Gal(b1-4)GlcNAc(b1-2)[Gal(b1-3)GlcNAc(b1-3)Gal(b1-4)GlcNAc(b1-6)]Man(a1-6)[Gal(b1-3)GlcNAc(b1-3)Gal(b1-4)GlcNAc(b1-2)Man(a1-3)]Man(b1-4)GlcNAc(b1-4)[Fuc(a1-6)]GlcNAc", "outline": "as §1"}, "[10]": {"target": "Gal(b1-3)GlcNAc(b1-3)Gal(b1-4)GlcNAc(b1-3)Gal(b1-4)GlcNAc(b1-2)[Gal(b1-3)GlcNAc(b1-3)Gal(b1-4)GlcNAc(b1-3)Gal(b1-4)GlcNAc(b1-6)]Man(a1-6)[Gal(b1-3)GlcNAc(b1-3)Gal(b1-4)GlcNAc(b1-3)Gal(b1-4)GlcNAc(b1-2)Man(a1-3)]Man(b1-4)GlcNAc(b1-4)[Fuc(a1-6)]GlcNAc", "outline": "as §1"}, "[11]": {"target": "Gal(b1-3)GlcNAc(b1-3)Gal(b1-4)GlcNAc(b1-6)[Gal(b1-3)GlcNAc(b1-3)]Gal(b1-4)Glc", "outline": "as §1"}, "[12]": {"target": "Gal(b1-3)GlcNAc(b1-3)Gal(b1-4)[Fuc(a1-3)]GlcNAc", "outline": "as §1"}, "[13]": {"target": "Gal(b1-3)GlcNAc(b1-3)Gal(b1-4)[Fuc(a1-3)]GlcNAc(b1-6)[Gal(b1-3)GlcNAc(b1-3)]Gal(b1-4)Glc", "outline": "as §1"}, "[14]": {"target": "Gal(b1-3)GlcNAc(b1-3)GalNAc", "outline": "as §1"}, "[15]": {"target": "Gal(b1-3)GlcNAc(b1-6)Gal(b1-4)GlcNAc", "outline": "as §1"}, "[16]": {"target": "Gal(b1-3)GlcNAc(b1-6)GalNAc", "outline": "as §1"}, "[17]": {"target": "Gal(b1-3)GlcNAc(b1-6)[Gal(b1-3)]GalNAc", "outline": "as §1"}, "Gal(b1-3)GlcNAc6S": {"target": "Gal(b1-3)GlcNAc6S", "outline": "as §1"}, "[18]": {"target": "Gal(b1-3)[Fuc(a1-4)]GlcNAc", "outline": "as §1"}, "[19]": {"target": "Gal(b1-3)[Fuc(a1-4)]GlcNAc(b1-2)Man", "outline": "as §1"}, "[20]": {"target": "Gal(b1-3)[Fuc(a1-4)]GlcNAc(b1-2)Man(a1-3)[Gal(b1-3)[Fuc(a1-4)]GlcNAc(b1-2)Man(a1-6)]Man(b1-4)GlcNAc(b1-4)[Fuc(a1-6)]GlcNAc", "outline": "as §1"}, "[21]": {"target": "Gal(b1-3)[Fuc(a1-4)]GlcNAc(b1-3)Gal(b1-3)[Fuc(a1-4)]GlcNAc", "outline": "as §1"}, "[22]": {"target": "Gal(b1-3)[Fuc(a1-4)]GlcNAc(b1-3)Gal(b1-4)[Fuc(a1-3)]GlcNAc", "outline": "as §1"}, "[23]": {"target": "Gal(b1-3)[Fuc(a1-4)]GlcNAc(b1-6)GalNAc", "outline": "as §1"}, "[24]": {"target": "Gal(b1-3)[GlcNAc(b1-6)]GalNAc", "outline": "as §1"}, "[25]": {"target": "Gal(b1-3)[Neu5Ac(a2-6)]GalNAc", "outline": "as §1"}, "[26]": {"target": "Gal(b1-3)[Neu5Ac(a2-6)]GlcNAc(b1-4)Gal(b1-4)Glc", "outline": "as §1"}, "[27]": {"target": "Gal(b1-3)[Neu5Ac(b2-6)]GalNAc", "outline": "as §1"}, "Gal(b1-4)Gal": {"target": "Gal(b1-4)Gal", "outline": "as §1"}, "[28]": {"target": "Gal(b1-4)GalNAc(a1-3)[Fuc(a1-2)]Gal(b1-4)GlcNAc", "outline": "as §1"}, "[29]": {"target": "Gal(b1-4)GalNAc(b1-3)[Fuc(a1-2)]Gal(b1-4)GlcNAc", "outline": "as §1"}, "Gal(b1-4)Glc": {"target": "Gal(b1-4)Glc", "outline": "as §1"}, "Gal(b1-4)Glc6S": {"target": "Gal(b1-4)Glc6S", "outline": "as §1"}, "Gal(b1-4)GlcNAc": {"target": "Gal(b1-4)GlcNAc", "outline": "as §1"}, "[30]": {"target": "Gal(b1-4)GlcNAc(a1-6)Gal(b1-4)GlcNAc", "outline": "as §1"}, "Gal(b1-4)GlcNAc(b1-2)Man": {"target": "Gal(b1-4)GlcNAc(b1-2)Man", "outline": "as §1"}, "[31]": {"target": "Gal(b1-4)GlcNAc(b1-2)Man(a1-3)Man(b1-4)GlcNAc(b1-4)GlcNAc", "outline": "as §1"}}, "note": "This is one part of the list."}
{"binder": "DC-ASGPR L+GEE (Homo sapiens) (protein) MTRTYENFQYLENKVKVQGFKNGPLPLQSLLQRLRSGPCHLLLSLGLGLLLLVIICVVGFQNSKFQRDLVTLRTDFSNFTSNTVAEIQALTSQGSSLEETIASLKAEVEGFKQERQAGVSELQEHTTQKAHLGHCPHCPSVCVPVHSEMLLRVQQLVQDLKKLTCQVATLNNNGEEASTEGTCCPVNWVEHQDSCYWFSHSGMSWAEAEKYCQLKNAHLVVINSREEQNFVQKYLGSAYTWMGLSDPEGAWKWVDGTDYATGFQNWKPGQPDDWQGHGLGGGEDCAHFHPDGRWNDDVCQRPYHWVCEAGLGQTSQESH", "values": [{"measurement": "glycan array binding signal (z-score)", "setting": "[1]", "result": -0.235}, {"measurement": "glycan array binding signal (z-score)", "setting": "[2]", "result": -0.527}, {"measurement": "glycan array binding signal (z-score)", "setting": "[3]", "result": 0.141}, {"measurement": "glycan array binding signal (z-score)", "setting": "[4]", "result": -0.037}, {"measurement": "glycan array binding signal (z-score)", "setting": "[5]", "result": -0.664}, {"measurement": "glycan array binding signal (z-score)", "setting": "[6]", "result": 0.316}, {"measurement": "glycan array binding signal (z-score)", "setting": "[7]", "result": -0.133}, {"measurement": "glycan array binding signal (z-score)", "setting": "[8]", "result": 0.389}, {"measurement": "glycan array binding signal (z-score)", "setting": "[9]", "result": 0.927}, {"measurement": "glycan array binding signal (z-score)", "setting": "[10]", "result": 1.47}, {"measurement": "glycan array binding signal (z-score)", "setting": "[11]", "result": -0.11}, {"measurement": "glycan array binding signal (z-score)", "setting": "[12]", "result": -0.22}, {"measurement": "glycan array binding signal (z-score)", "setting": "[13]", "result": -0.336}, {"measurement": "glycan array binding signal (z-score)", "setting": "[14]", "result": -0.511}, {"measurement": "glycan array binding signal (z-score)", "setting": "[15]", "result": -0.073}, {"measurement": "glycan array binding signal (z-score)", "setting": "[16]", "result": 3.3}, {"measurement": "glycan array binding signal (z-score)", "setting": "[17]", "result": -0.453}, {"measurement": "glycan array binding signal (z-score)", "setting": "Gal(b1-3)GlcNAc6S", "result": -0.504}, {"measurement": "glycan array binding signal (z-score)", "setting": "[18]", "result": -0.264}, {"measurement": "glycan array binding signal (z-score)", "setting": "[19]", "result": 0.111}, {"measurement": "glycan array binding signal (z-score)", "setting": "[20]", "result": -0.413}, {"measurement": "glycan array binding signal (z-score)", "setting": "[21]", "result": -0.093}, {"measurement": "glycan array binding signal (z-score)", "setting": "[22]", "result": -0.367}, {"measurement": "glycan array binding signal (z-score)", "setting": "[23]", "result": 1.22}, {"measurement": "glycan array binding signal (z-score)", "setting": "[24]", "result": -0.327}, {"measurement": "glycan array binding signal (z-score)", "setting": "[25]", "result": -0.3}, {"measurement": "glycan array binding signal (z-score)", "setting": "[26]", "result": -0.382}, {"measurement": "glycan array binding signal (z-score)", "setting": "[27]", "result": -0.037}, {"measurement": "glycan array binding signal (z-score)", "setting": "Gal(b1-4)Gal", "result": -0.026}, {"measurement": "glycan array binding signal (z-score)", "setting": "[28]", "result": -0.748}, {"measurement": "glycan array binding signal (z-score)", "setting": "[29]", "result": -0.373}, {"measurement": "glycan array binding signal (z-score)", "setting": "Gal(b1-4)Glc", "result": 0.196}, {"measurement": "glycan array binding signal (z-score)", "setting": "Gal(b1-4)Glc6S", "result": -0.159}, {"measurement": "glycan array binding signal (z-score)", "setting": "Gal(b1-4)GlcNAc", "result": -0.286}, {"measurement": "glycan array binding signal (z-score)", "setting": "[30]", "result": -0.551}, {"measurement": "glycan array binding signal (z-score)", "setting": "Gal(b1-4)GlcNAc(b1-2)Man", "result": 0.398}, {"measurement": "glycan array binding signal (z-score)", "setting": "[31]", "result": -0.271}]}
